Several values for one entry are separate records, joined by “and”; a condition that tells them apart may be missing. Equal values may be shown once. The campaign covered roughly 110,000 compounds. About 610 (0.55%) were called active. This list was built around the results that the source calls inconclusive (neither active nor inactive); the mix of calls is not that of the screen. Calls follow the shape of the dose curve; as a rule, active = well fitted inhibition curve with a large enough effect; inconclusive = small, poorly fitted or top-dose-only effect; inactive = no such curve, though single readings can be large or run the other way. Potencies of inconclusive entries are doubtful fits and often do not repeat.
target: Polyunsaturated fatty acid lipoxygenase ALOX15B (Homo sapiens) (UniProt O15296); assay: qHTS Assay for Inhibitors of 15-hLO-2 (15-human lipoxygenase 2); details: purified 15hLO-2, xylenol orange hydroperoxide absorbance; activity change, negative = inhibition: at 57.1 µM (top of the series) unless noted; also: nearly all actives have a fitted effect of over 60% in size
How it was run: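 Purified human 15hLO-2 (50 nM) preincubated 15 min with compound, then 45 uM arachidonic acid for 90 min at RT in 25 mM Hepes pH 7.5, 0.01% Triton X-100. Hydroperoxide detected by Fe-xylenol orange; 573/405 nm absorbance ratio.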
% is scaled to controls: 0 for no effect and ±100 for the full control effect; potency is read from the fitted curve at half-maximal effect; tags tell the direction and shape of the fitted curve.

Chain of UniProt O15296 (O15296 whole entry, looked up): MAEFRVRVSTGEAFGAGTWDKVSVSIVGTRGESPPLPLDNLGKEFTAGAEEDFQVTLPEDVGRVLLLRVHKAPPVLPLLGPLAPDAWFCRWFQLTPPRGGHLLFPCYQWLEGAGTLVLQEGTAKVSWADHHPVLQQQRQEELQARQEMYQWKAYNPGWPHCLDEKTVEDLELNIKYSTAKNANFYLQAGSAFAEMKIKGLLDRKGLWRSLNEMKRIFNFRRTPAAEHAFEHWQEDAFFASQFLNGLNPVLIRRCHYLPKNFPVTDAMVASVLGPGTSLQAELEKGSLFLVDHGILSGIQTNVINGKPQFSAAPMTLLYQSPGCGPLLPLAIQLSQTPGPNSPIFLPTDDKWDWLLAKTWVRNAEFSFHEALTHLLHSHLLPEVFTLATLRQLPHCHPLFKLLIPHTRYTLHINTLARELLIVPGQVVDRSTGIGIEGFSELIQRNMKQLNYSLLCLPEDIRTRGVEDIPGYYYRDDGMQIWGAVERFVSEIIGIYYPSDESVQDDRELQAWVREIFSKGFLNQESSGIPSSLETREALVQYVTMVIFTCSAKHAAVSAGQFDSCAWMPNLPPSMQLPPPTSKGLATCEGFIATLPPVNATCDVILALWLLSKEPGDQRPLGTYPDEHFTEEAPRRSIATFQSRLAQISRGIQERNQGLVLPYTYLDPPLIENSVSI

Row | Structure (SMILES) | Potency | activity change, negative = inhibition
1 | O=C(N/N=C/c1ccc(Sc2ccccn2)o1)c1cc2ccccc2cc1O | inconclusive: 25.1 µM [inhibitor, partial curve] | 
2 | COC(=O)c1sc(N2C(=O)c3oc4ccccc4c(=O)c3C2c2cccs2)nc1C (stereo not drawn) | inconclusive: 20 µM [inhibitor, partial curve] | 
3 | CCOc1ccc(C2/C(=C(/O)c3ccc(OC)cc3)C(=O)C(=O)N2c2cc(C)on2)cc1OC (stereo not drawn) | inactive | 
4 | Cc1ccc(NC(=S)Nc2nc(CC(=O)Nc3ccccc3)cs2)cc1 | inconclusive: 25.1 µM [inhibitor, partial curve] | 
5 | COc1ccc(CNC(=O)c2cccc(N(C)C)c2)cc1 | inconclusive: 20 µM [inhibitor, single point] | 
6 | Cc1ccc(S(=O)(=O)NCCOC(=O)Nc2sc(=S)n(C)c2C)cc1 | inconclusive: 15.8 µM [inhibitor, partial curve] | 
7 | Cc1cccc(-c2cc(=O)c3cc(C)ccc3o2)c1 | inactive | 
8 | O=[N+]([O-])/C=C/c1cn(Cc2ccc(F)cc2)c2ccccc12 | inconclusive: 15.8 µM [inhibitor, partial curve] | 
9 | Cc1ccc(NC2=C(N3CCCCC3)C(=O)c3ccccc3C2=O)cc1 | inconclusive: 3.16 µM [inhibitor, full curve, poor fit] | 
10 | COC(=O)[C@@]1(Cc2ccc(F)cc2)[C@H]2c3cc(C(=O)N(C)C)n(Cc4ccc(O)c(OC)c4)c3C[C@H]2CN1C(=O)c1ccccc1 | inconclusive: 7.94 µM [inhibitor, partial curve] | 
11 | O=C(c1cnccn1)N1CCC2(CC1)CN(C(c1ccccc1)c1ccccc1)C2 | inactive | 
12 | O=c1[nH]c(=S)[nH]c(-c2ccccc2)c1Cc1c(O)ccc2ccccc12 | inconclusive: 3.16 µM [inhibitor, single point] | 
13 | CC(C)c1ccc(NC(=S)NCc2cccs2)cc1 | inconclusive: 25.1 µM [inhibitor, single point] | 
14 | COc1ccc(OCC(O)CN2C(=O)c3ccccc3S2(=O)=O)cc1 (stereo not drawn) | inactive | 
15 | c1cncc(-c2cc(NCc3cccs3)ncn2)c1 | inconclusive: 31.6 µM [inhibitor, single point] | 
16 | CC1(C)CC(=O)C(C=NCCN2CCOCC2)=C(O)C1 | inactive | 
17 | COc1cc(-c2nnc3sc(-c4cccs4)nn23)cc(OC)c1OC | inactive | 
18 | CC(=O)N1CCC2(CCCN(C(=O)Nc3cccc(C#N)c3)C2)CC1 | inactive | 
19 | CCOc1cc(C2CC(=O)N3CN(C4CCCCC4)CSC3=C2C#N)ccc1O (stereo not drawn) | inconclusive: 31.6 µM [inhibitor, single point] | 
20 | Cc1ccc(CNC(=O)[C@H](C)[C@H]2C[C@]2(C)[C@H](NC(=O)OCc2ccccc2)c2ccccc2)o1 | inconclusive: 25.1 µM [inhibitor, single point] | 
21 | Cc1ccc(C2C(C#N)=C(N)SC(N)=C2C#N)o1 | inconclusive: 39.8 µM [inhibitor, single point] | 
22 | O=C(c1cccs1)N(Cc1ccco1)Cc1cc2ccccc2[nH]c1=O | inactive | 
23 | Cn1cc(C(=O)c2ccccc2)cc1-c1nc2ccccc2n1C | inactive | 

Row | Structure (SMILES) | Potency | activity change, negative = inhibition
24 | Cc1c(Cl)ccc2c1NC(=O)[C@]21N[C@@H](CCC(N)=O)[C@H]2C(=O)N(c3ccc(F)cc3)C(=O)[C@H]21 | inconclusive: 20 µM [inhibitor, partial curve] | 
25 | CCSc1oc(-c2ccccc2)nc1S(=O)(=O)c1ccccc1 | inconclusive: 31.6 µM [inhibitor, single point] | 
26 | CCCCOCC1CN(c2ccccc2)C(=O)CS1 (stereo not drawn) | inconclusive: 31.6 µM [inhibitor, single point] | 
27 | O=[N+]([O-])c1cc(N(CCO)CCO)ccc1NCCO | inconclusive: 20 µM [inhibitor, partial curve] | 
28 | COc1ccc(N=Nc2cnc(C)nc2-c2ccccc2)cc1 |  | inactive: -9.42% [at 11.4 µM]
29 | CCn1c(NC(=O)c2ccc(F)cc2)c2ccccc2nc1=O | inactive | 
30 | Nc1ccccc1S[C@@H](C[N+](=O)[O-])c1ccc2c(c1)OCO2 |  | inactive: -19% [at 11.4 µM]
31 | COc1ccccc1C1=Nc2cccc3cccc(c23)N1 | inconclusive: 3.98 µM [inhibitor, full curve] | 
32 | O=c1cnc2cncnc2n1Cc1ccccc1 | inactive | 
33 | O=S(=O)(/N=C(\Sc1ccc(Cl)cc1)c1ccccc1)c1ccccc1 | inconclusive: 15.8 µM [inhibitor, partial curve] | 
34 | CN1CCc2cccc3c2[C@@H]1Cc1ccc(O)c(O)c1-3 | inconclusive: 2 µM [inhibitor, full curve, poor fit] and inconclusive: 3.98 µM [inhibitor, partial curve] and inconclusive: 1.58 µM [inhibitor, full curve] | 
35 | O=C(CC1SC(=O)N(c2ccccc2)C1=O)Nc1ccccc1 (stereo not drawn) | inconclusive: 6.31 µM [inhibitor, partial curve] | 
36 | COc1ccc(Cn2c3nc4ccccc4nc3c3c(=O)n(Cc4ccco4)c(C)nc32)cc1 | inconclusive: 25.1 µM [inhibitor, partial curve] | 
37 | CC(C)(C)c1ccc(Cn2nnc3c(=O)[nH]c(C4CCCN(C(=O)Cc5cccs5)C4)nc32)cc1 (stereo not drawn) | inconclusive: 25.1 µM [inhibitor, partial curve] | 
38 | Cc1sc(NC(=S)NC(=O)C(C)(C)C)c(C(N)=O)c1C | inconclusive: 1.26 µM [inhibitor, full curve, poor fit] | 
39 | O=S(=O)(c1ccccc1)N1CCC2(CCN(c3ncccn3)CC2)CC1 | inactive | 
40 | COc1ccccc1/C=C/C=N/n1c(COc2ccccc2)n[nH]c1=S | inconclusive: 1 µM [inhibitor, full curve] | 
41 | COc1ccc(S(=O)(=O)C(C#N)c2nc3ccccc3nc2N2CCCCC2)cc1 (stereo not drawn) | inconclusive: 25.1 µM [inhibitor, single point] | 
42 | CCOC(=O)c1c(-c2ccc(-c3ccccc3)cc2)csc1NC(=O)C1C2CCC(O2)C1C(=O)O (stereo not drawn) | active: 20 µM | 
43 | CCCCn1c(NC(C)=O)c(C#N)c2nc3ccccc3nc21 | inconclusive: 7.94 µM [inhibitor, full curve] | 
44 | COc1ccccc1C(OC(=O)c1cccs1)C(=O)NCc1ccco1 (stereo not drawn) | inconclusive: 25.1 µM [inhibitor, partial curve] | 
45 | O=C(O)c1ccccc1-c1c2ccc(=O)cc-2oc2cc(O)ccc12 | inconclusive: 28.2 µM [inhibitor, single point] | 
46 | COCCSc1ccccc1C(=O)Nc1cc(C)on1 | inconclusive: 15.8 µM [inhibitor, single point] | 

Row | Structure (SMILES) | Potency | activity change, negative = inhibition
47 | Cc1cc([N+](=O)[O-])ccc1-c1ccc(C2Nc3ccccc3C(=O)N2O)o1 (stereo not drawn) | inconclusive: 20 µM [inhibitor, partial curve] | 
48 | Cc1ccc2c(c1)C(N1CCCC1=O)CC(c1ccco1)N2 (stereo not drawn) | inconclusive: 25.1 µM [inhibitor, single point] | 
49 | FC(F)Sc1ccc(N=C2NN=C(c3ccc4c(c3)OCCO4)CS2)cc1 | inconclusive: 25.1 µM [inhibitor, partial curve] | 
50 | CCOC(=O)C[n+]1c(C)sc2ccc(OC)cc21 | inconclusive: 25.1 µM [inhibitor, partial curve] | 
51 | CC1=C(C(=O)O)N2C(=O)C(NC(=O)C(N)c3ccc(O)cc3)C2SC1 (stereo not drawn) | inactive | 
52 | CN1CCN(c2ncc3nc(-c4ccccc4)c(=O)n(Cc4cccs4)c3n2)CC1 | inactive | 
53 | COc1cc(NS(=O)(=O)c2ccc(NC(=S)NC(=O)C(C)(C)C)cc2)nc(OC)n1 | inconclusive: 25.1 µM [inhibitor, partial curve] | 
54 | N#Cc1c(N)sc2c1CCN(C(=O)OCc1ccccc1)C2 | inconclusive: 3.16 µM [inhibitor, single point] | 
55 | Fc1ccc(Br)cc1C1C=C(c2ccc(Br)cc2)Nc2ncnn21 (stereo not drawn) | inactive | 
56 | CC1(C)CC[C@]2(C(=O)O)C(O)C[C@@]3(C)C(=CCC4[C@@]5(C)CCC(O)C(C)(C)C5CC[C@@]43C)C2C1 (stereo partly drawn) | inactive | 
57 | N=c1oc2ccc3ccccc3c2cc1-c1nnc2n1CCCCC2 | inactive | 
58 | CO/N=C/C(C#N)c1ncc(C(F)(F)F)cc1Cl (stereo not drawn) | inconclusive: 25.1 µM [inhibitor, partial curve] | 
59 | C=CCc1cc(/C=C2/NC(=S)NC2=O)cc(OC)c1O | inactive | 
60 | CC1CC2=C(CC1/C=N/NC(N)=S)C(C)(C)CCC2 (stereo not drawn) | inconclusive: 20 µM [inhibitor, partial curve] | 
61 | O=c1c(-c2ccco2)[n+]([O-])c2ccccc2n1OCc1ccccn1 | inconclusive: 15.8 µM [inhibitor, single point] | 
62 | CCCOC(=O)c1ccc(NC(=O)C2C3C=CC(O3)C2C(=O)O)cc1 (stereo not drawn) | inconclusive: 5.01 µM [inhibitor, full curve] | 
63 | Cc1nnc(N(C)C(=O)c2ccccn2)s1 | inconclusive: 0.158 µM [inhibitor, full curve] | 
64 | CCOC(=O)c1c(NC(=O)CSc2nnc(CNc3ccc(F)cc3)o2)sc(C)c1C | inactive | 
65 | O=C(/C=C/c1ccccc1)NC(NC(=S)Nc1cccc(Cl)c1)C(Cl)(Cl)Cl (stereo not drawn) | inconclusive: 31.6 µM [inhibitor, single point] | 
66 | CCOC(=O)c1c(N)sc(C)c1-c1ccccc1 | inconclusive: 12.6 µM [inhibitor, partial curve] | 
67 | CCSCCOC(=O)C1=C(C)NC2=C(C(=O)CCC2)C1c1coc2ccccc2c1=O (stereo not drawn) | inactive | 
68 | Cc1ccc(NC(=O)CSc2nnc(Cn3cnc4ccccc43)o2)c(C)c1 | inconclusive: 0.316 µM [inhibitor, full curve, poor fit] | 

Reference: PubChem BioAssay AID881 (National Center for Advancing Translational Sciences (NCATS), 2007)
